# According to the supplement of paper PMC8728848:
# This is one part of the list.
# B1: CCL1 (Coprinopsis cinerea) (protein)
# chain: MDTQAKPPAGRYVIYNRVLSPNGEKLALTYPGYQREALTLTPLHHSANQIWILNNWDATTSSLTPETARNTQVGWGSGNVPIVLPPGNYVWTLASSAGGYIIQDGGKTVYWNAGEAVANTKVSIGGDNGLQARWIFERV
# Legend:
# Assay in all cases: glycan array binding signal (z-score within array); higher = stronger binding
# Details in all cases: glycan notation: IUPAC condensed, linker removed
# Fuc(a1-2)Gal = target: Fuc(a1-2)Gal
# Procedure, shortened: (§1)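 Negative Z-scores can be read as non-binding. The Z-score is calculated within each array and then averaged across arrays of one protein sequence at different concentrations or buffers and across linkers. Arrays, 3228 in all, were curated from the Consortium for Functional Glycomics database and kept only where the protein sequence was available.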
# Fuc(a1-2)Gal(b1-3)GalNAc = target: Fuc(a1-2)Gal(b1-3)GalNAc
# Procedure, shortened: as §1
# [1] = target: Fuc(a1-2)Gal(b1-3)GalNAc(a1-3)[Fuc(a1-2)]Gal(b1-4)Glc
# Procedure, shortened: as §1
# [2] = target: Fuc(a1-2)Gal(b1-3)GalNAc(a1-3)[Fuc(a1-2)]Gal(b1-4)GlcNAc
# Procedure, shortened: as §1
# [3] = target: Fuc(a1-2)Gal(b1-3)GalNAc(b1-3)Gal
# Procedure, shortened: as §1
# [4] = target: Fuc(a1-2)Gal(b1-3)GalNAc(b1-3)Gal(a1-4)Gal(b1-4)Glc
# Procedure, shortened: as §1
# [5] = target: Fuc(a1-2)Gal(b1-3)GalNAc(b1-4)[Neu5Ac(a2-3)]Gal(b1-4)Glc
# Procedure, shortened: as §1
# Fuc(a1-2)Gal(b1-3)GlcNAc = target: Fuc(a1-2)Gal(b1-3)GlcNAc
# Procedure, shortened: as §1
# [6] = target: Fuc(a1-2)Gal(b1-3)GlcNAc(b1-2)Man(a1-3)[Fuc(a1-2)Gal(b1-3)GlcNAc(b1-2)Man(a1-6)]Man(b1-4)GlcNAc(b1-4)GlcNAc
# Procedure, shortened: as §1
# [7] = target: Fuc(a1-2)Gal(b1-3)GlcNAc(b1-2)Man(a1-3)[Fuc(a1-2)Gal(b1-3)GlcNAc(b1-2)Man(a1-6)]Man(b1-4)GlcNAc(b1-4)[Fuc(a1-6)]GlcNAc
# Procedure, shortened: as §1
# [8] = target: Fuc(a1-2)Gal(b1-3)GlcNAc(b1-3)Gal(b1-4)Glc
# Procedure, shortened: as §1
# [9] = target: Fuc(a1-2)Gal(b1-3)GlcNAc(b1-3)GalNAc
# Procedure, shortened: as §1
# [10] = target: Fuc(a1-2)Gal(b1-3)GlcNAc(b1-3)[Fuc(a1-2)Gal(b1-3)GlcNAc(b1-6)]GalNAc
# Procedure, shortened: as §1
# [11] = target: Fuc(a1-2)Gal(b1-3)GlcNAc(b1-3)[Fuc(a1-3)[Gal(b1-4)]GlcNAc(b1-6)]Gal(b1-4)Glc
# Procedure, shortened: as §1
# [12] = target: Fuc(a1-2)Gal(b1-3)GlcNAc(b1-3)[Gal(b1-4)GlcNAc(b1-6)]Gal(b1-4)Glc
# Procedure, shortened: as §1
# [13] = target: Fuc(a1-2)Gal(b1-3)GlcNAc(b1-3)[Neu5Ac(a2-6)Gal(b1-4)GlcNAc(b1-6)]Gal(b1-4)Glc
# Procedure, shortened: as §1
# [14] = target: Fuc(a1-2)Gal(b1-3)GlcNAc6S
# Procedure, shortened: as §1
# [15] = target: Fuc(a1-2)Gal(b1-3)[Fuc(a1-4)]GlcNAc
# Procedure, shortened: as §1
# [16] = target: Fuc(a1-2)Gal(b1-3)[Fuc(a1-4)]GlcNAc(b1-2)Man(a1-3)[Fuc(a1-2)Gal(b1-3)[Fuc(a1-4)]GlcNAc(b1-2)Man(a1-6)]Man(b1-4)GlcNAc(b1-4)GlcNAc
# Procedure, shortened: as §1
# [17] = target: Fuc(a1-2)Gal(b1-3)[Fuc(a1-4)]GlcNAc(b1-2)Man(a1-6)[Fuc(a1-2)Gal(b1-3)[Fuc(a1-4)]GlcNAc(b1-2)Man(a1-3)]Man(b1-4)GlcNAc(b1-4)[Fuc(a1-6)]GlcNAc
# Procedure, shortened: as §1
# [18] = target: Fuc(a1-2)Gal(b1-3)[Fuc(a1-4)]GlcNAc(b1-3)[Fuc(a1-3)[Gal(b1-4)]GlcNAc(b1-6)]Gal(b1-4)Glc
# Procedure, shortened: as §1
# [19] = target: Fuc(a1-2)Gal(b1-3)[Fuc(a1-4)]GlcNAc(b1-3)[Gal(b1-4)GlcNAc(b1-6)]Gal(b1-4)Glc
# Procedure, shortened: as §1
# Fuc(a1-2)Gal(b1-4)Glc = target: Fuc(a1-2)Gal(b1-4)Glc
# Procedure, shortened: as §1
# Fuc(a1-2)Gal(b1-4)Glc6S = target: Fuc(a1-2)Gal(b1-4)Glc6S
# Procedure, shortened: as §1
# Fuc(a1-2)Gal(b1-4)GlcNAc = target: Fuc(a1-2)Gal(b1-4)GlcNAc
# Procedure, shortened: as §1
# [20] = target: Fuc(a1-2)Gal(b1-4)GlcNAc(b1-2)Man
# Procedure, shortened: as §1
# [21] = target: Fuc(a1-2)Gal(b1-4)GlcNAc(b1-2)Man(a1-3)[Fuc(a1-2)Gal(b1-4)GlcNAc(b1-2)Man(a1-6)]Man(b1-4)GlcNAc(b1-4)GlcNAc
# Procedure, shortened: as §1
# [22] = target: Fuc(a1-2)Gal(b1-4)GlcNAc(b1-2)Man(a1-3)[Fuc(a1-2)Gal(b1-4)GlcNAc(b1-2)Man(a1-6)]Man(b1-4)GlcNAc(b1-4)[Fuc(a1-6)]GlcNAc
# Procedure, shortened: as §1
# [23] = target: Fuc(a1-2)Gal(b1-4)GlcNAc(b1-2)[Fuc(a1-2)Gal(b1-4)GlcNAc(b1-4)]Man(a1-3)[Fuc(a1-2)Gal(b1-4)GlcNAc(b1-2)Man(a1-6)]Man(b1-4)GlcNAc(b1-4)GlcNAc
# Procedure, shortened: as §1
# [24] = target: Fuc(a1-2)Gal(b1-4)GlcNAc(b1-3)Gal(b1-4)GlcNAc
# Procedure, shortened: as §1
# [25] = target: Fuc(a1-2)Gal(b1-4)GlcNAc(b1-3)Gal(b1-4)GlcNAc(b1-3)Gal(b1-4)GlcNAc
# Procedure, shortened: as §1
# [26] = target: Fuc(a1-2)Gal(b1-4)GlcNAc(b1-3)GalNAc
# Procedure, shortened: as §1
# [27] = target: Fuc(a1-2)Gal(b1-4)GlcNAc(b1-3)[Fuc(a1-2)Gal(b1-4)GlcNAc(b1-6)]GalNAc
# Procedure, shortened: as §1
# [28] = target: Fuc(a1-2)Gal(b1-4)GlcNAc(b1-6)GalNAc
# Procedure, shortened: as §1
# [29] = target: Fuc(a1-2)Gal(b1-4)GlcNAc6S
# Procedure, shortened: as §1
# [30] = target: Fuc(a1-2)Gal(b1-4)[Fuc(a1-3)]GlcNAc
# Procedure, shortened: as §1
# [31] = target: Fuc(a1-2)Gal(b1-4)[Fuc(a1-3)]GlcNAc(b1-2)Man(a1-3)[Fuc(a1-2)Gal(b1-4)[Fuc(a1-3)]GlcNAc(b1-2)Man(a1-6)]Man(b1-4)GlcNAc(b1-4)GlcNAc
# Procedure, shortened: as §1
# [32] = target: Fuc(a1-2)Gal(b1-4)[Fuc(a1-3)]GlcNAc(b1-2)Man(a1-6)[Fuc(a1-2)Gal(b1-4)[Fuc(a1-3)]GlcNAc(b1-2)Man(a1-3)]Man(b1-4)GlcNAc(b1-4)[Fuc(a1-6)]GlcNAc
# Procedure, shortened: as §1
# [33] = target: Fuc(a1-2)Gal(b1-4)[Fuc(a1-3)]GlcNAc(b1-2)[Fuc(a1-2)Gal(b1-4)[Fuc(a1-3)]GlcNAc(b1-4)]Man(a1-3)[Fuc(a1-2)Gal(b1-4)[Fuc(a1-3)]GlcNAc(b1-2)Man(a1-6)]Man(b1-4)GlcNAc(b1-4)GlcNAc
# Procedure, shortened: as §1
# [34] = target: Fuc(a1-2)Gal(b1-4)[Fuc(a1-3)]GlcNAc(b1-3)Gal(b1-4)[Fuc(a1-3)]GlcNAc
# Procedure, shortened: as §1
# [35] = target: Fuc(a1-2)Gal(b1-4)[Fuc(a1-3)]GlcNAc(b1-3)Gal(b1-4)[Fuc(a1-3)]GlcNAc(b1-3)Gal(b1-4)[Fuc(a1-3)]GlcNAc
# Procedure, shortened: as §1
# [36] = target: Fuc(a1-2)Gal(b1-4)[Fuc(a1-3)]GlcNAc(b1-3)GalNAc
# Procedure, shortened: as §1
# [37] = target: Fuc(a1-2)Gal(b1-4)[Fuc(a1-3)]GlcNAc(b1-3)[Neu5Ac(a2-6)Gal(b1-4)GlcNAc(b1-6)]Gal(b1-4)Glc
# Procedure, shortened: as §1
# [38] = target: Fuc(a1-2)Gal6S(b1-3)GlcNAc
# Procedure, shortened: as §1
# [39] = target: Fuc(a1-2)Gal6S(b1-3)GlcNAc6S
# Procedure, shortened: as §1
binder,measurement,setting,value
B1,glycan array binding signal (z-score),Fuc(a1-2)Gal,-0.154
same,glycan array binding signal (z-score),Fuc(a1-2)Gal(b1-3)GalNAc,-0.156
same,glycan array binding signal (z-score),[1],-0.129
same,glycan array binding signal (z-score),[2],-0.117
same,glycan array binding signal (z-score),[3],-0.113
same,glycan array binding signal (z-score),[4],-0.136
same,glycan array binding signal (z-score),[5],-0.158
same,glycan array binding signal (z-score),Fuc(a1-2)Gal(b1-3)GlcNAc,-0.157
same,glycan array binding signal (z-score),[6],-0.116
same,glycan array binding signal (z-score),[7],-0.127
same,glycan array binding signal (z-score),[8],-0.15
same,glycan array binding signal (z-score),[9],-0.083
same,glycan array binding signal (z-score),[10],-0.118
same,glycan array binding signal (z-score),[11],0.234
same,glycan array binding signal (z-score),[12],-0.158
same,glycan array binding signal (z-score),[13],-0.139
same,glycan array binding signal (z-score),[14],-0.097
same,glycan array binding signal (z-score),[15],-0.14
same,glycan array binding signal (z-score),[16],-0.006
same,glycan array binding signal (z-score),[17],-0.148
same,glycan array binding signal (z-score),[18],0.089
same,glycan array binding signal (z-score),[19],-0.144
same,glycan array binding signal (z-score),Fuc(a1-2)Gal(b1-4)Glc,-0.127
same,glycan array binding signal (z-score),Fuc(a1-2)Gal(b1-4)Glc6S,-0.124
same,glycan array binding signal (z-score),Fuc(a1-2)Gal(b1-4)GlcNAc,-0.142
same,glycan array binding signal (z-score),[20],-0.125
same,glycan array binding signal (z-score),[21],-0.147
same,glycan array binding signal (z-score),[22],-0.117
same,glycan array binding signal (z-score),[23],-0.13
same,glycan array binding signal (z-score),[24],-0.14
same,glycan array binding signal (z-score),[25],-0.153
same,glycan array binding signal (z-score),[26],-0.052
same,glycan array binding signal (z-score),[27],-0.025
same,glycan array binding signal (z-score),[28],0.468
same,glycan array binding signal (z-score),[29],-0.142
same,glycan array binding signal (z-score),[30],-0.139
same,glycan array binding signal (z-score),[31],-0.076
same,glycan array binding signal (z-score),[32],-0.119
same,glycan array binding signal (z-score),[33],-0.108
same,glycan array binding signal (z-score),[34],-0.136
same,glycan array binding signal (z-score),[35],0.235
same,glycan array binding signal (z-score),[36],0.375
same,glycan array binding signal (z-score),[37],-0.142
same,glycan array binding signal (z-score),[38],-0.139
same,glycan array binding signal (z-score),[39],-0.041
